Results as given in PubChem BioAssay AID1645887 (National Center for Advancing Translational Sciences (NCATS), 2021).
Values joined by “and” are separate entries in the source; they are usually repeats but may differ in a detail not shown here. Equal entries are not always repeated. The whole screen tested about 16,000 compounds, of which about 40 (0.2%) were called active. About 1% were inconclusive and are not listed. The call rests on the fitted dose curve; in most records, active means well fitted activation curve with a large enough effect; inconclusive means small, poorly fitted or top-dose-only effect, or another doubt; inactive means no such curve, though single readings can be large or run the other way. Some of the results follow.

target: Rap guanine nucleotide exchange factor 4 (Homo sapiens) (UniProt Q8WZA2); assay: Validation qHTS for agonist of cAMP-regulated guanine nucleotide exchange factor 4 (EPAC2); conditions: EPAC2 Rap1B BODIPY-GDP exchange, fluorescence; activation: active compounds read high;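 further: exchange makes BODIPY-GDP fluorescence drop when released from Rap1B; series mostly up to about 150 µM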
Chain of UniProt Q8WZA2 (Q8WZA2 whole entry, looked up): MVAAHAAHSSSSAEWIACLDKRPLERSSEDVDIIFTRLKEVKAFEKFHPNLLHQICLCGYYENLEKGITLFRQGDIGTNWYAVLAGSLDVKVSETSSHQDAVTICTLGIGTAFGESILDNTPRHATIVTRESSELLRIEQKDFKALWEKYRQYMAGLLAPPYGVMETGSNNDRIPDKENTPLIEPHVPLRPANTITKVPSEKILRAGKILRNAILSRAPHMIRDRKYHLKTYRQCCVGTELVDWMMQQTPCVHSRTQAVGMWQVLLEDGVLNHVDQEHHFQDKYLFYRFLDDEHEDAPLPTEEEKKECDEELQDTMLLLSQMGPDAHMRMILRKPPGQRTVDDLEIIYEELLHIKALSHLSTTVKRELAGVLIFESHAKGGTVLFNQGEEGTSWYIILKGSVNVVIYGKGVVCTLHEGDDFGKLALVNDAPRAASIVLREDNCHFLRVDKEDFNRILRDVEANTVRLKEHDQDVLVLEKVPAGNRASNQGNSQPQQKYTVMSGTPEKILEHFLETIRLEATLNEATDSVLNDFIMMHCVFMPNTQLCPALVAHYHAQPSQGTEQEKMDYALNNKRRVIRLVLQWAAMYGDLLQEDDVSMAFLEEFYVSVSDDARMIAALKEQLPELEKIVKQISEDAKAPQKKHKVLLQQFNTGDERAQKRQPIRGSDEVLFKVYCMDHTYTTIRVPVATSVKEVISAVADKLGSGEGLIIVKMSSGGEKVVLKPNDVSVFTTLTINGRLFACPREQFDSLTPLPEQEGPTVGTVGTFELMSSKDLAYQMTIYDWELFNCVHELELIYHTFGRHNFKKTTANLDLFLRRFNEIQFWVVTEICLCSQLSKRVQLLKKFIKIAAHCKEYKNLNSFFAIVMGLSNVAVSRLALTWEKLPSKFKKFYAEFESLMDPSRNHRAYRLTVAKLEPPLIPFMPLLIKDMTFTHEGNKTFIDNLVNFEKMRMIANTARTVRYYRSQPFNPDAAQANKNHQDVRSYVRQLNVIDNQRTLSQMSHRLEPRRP
How it was run: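 Fluorescent exchange assay: 100 nM EPAC2 with 250 nM RAP1B-BODIPY-GDP and 50 uM GDP; compound added, 5 min at room temperature, then read (ex 480/em 540 nm) every 5 min for 30 min. Normalized to 6.5 mM cAMP agonist control.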
On the % scale 0 is the no-effect control and ±100 the full control effect.

activation, inactive:
COc1ccc(OC)c(CN2C[C@H](Sc3ccc(F)cc3)C[C@H]2C(=O)N(C)C)c1 -1.63%, CC(=O)NC(=O)c1ccccc1O -5.54%, COc1c2c(cc3c1C(c1c(O)c4ccccc4oc1=O)N(C)CC3)OCO2 (stereo not given) 7.81%, CC(=O)[C@@]1(O)CC[C@H]2[C@@H]3C[C@H](C)C4=CC(=O)C=C[C@]4(C)[C@@]3(F)[C@@H](O)C[C@@]21C -13.1%, CC(=O)Nc1ccc(OC(=O)c2ccccc2OC(C)=O)cc1 -5.36%, COc1cccc(-c2cc3c(c(OC)c2)OCCN(Cc2cccn2-c2ccccn2)C3)c1 -0.0456%, c1ccc2sc(SN3CCOCC3)nc2c1 19.1%, CCc1nc(N)nc(N)c1-c1ccc(Cl)cc1 -10.4% and 1.6%, N#Cc1cccc(-c2cc(-n3ccnc3)ncn2)c1 -15.1%, COC(=O)CCCOc1ccc(Cl)cc1Cl -0.799%, O=C(c1cccc(F)c1)N1CCC2(CCCN(c3ccccc3)C2)CC1 -8.63%, Cc1ncc2c(c1CNC(=O)c1ccc3c(c1)OCO3)CCN(C(=O)c1cc3ccccc3n1C)C2 -7.38%, O=C1C=C(O)c2ccccc2C1=O -13.2% and -14%, CC1=C2C(=CO[C@H](C)[C@H]2C)C(=O)C(C(=O)O)=C1O -14.1%, CC(C)NS(=O)(=O)c1cc(C(F)(F)F)ccc1/C=C/C(=O)O -26.4%, CC(=O)C[C@H]1c2ccccc2S(=O)(=O)N1C1CCCC1 -33.2%, COCCNc1ncnc2ccc(-c3ccc(C(=O)N(C)C)cc3)cc12 0.716%, O=C(NC1CC1)[C@@H]1C[C@@H](Sc2nc3ccccc3[nH]2)CN1CC1CCCCC1 -7.95%, CCNc1ncc2nc(-c3ccc(OC)cc3)c(=O)n(Cc3cccs3)c2n1 12.5%, CC(C)NCC(O)COc1ccc(CCOCC2CC2)cc1 (stereo not given) -12.8% and -10.4%, CCOC(=O)N1CCN(/[N+]([O-])=N/Oc2ccc([N+](=O)[O-])cc2[N+](=O)[O-])CC1 -27.3%, COc1cc(C(=O)NCc2ccc(OCCN(C)C)cc2)cc(OC)c1OC -1.68% and -0.128%, CCCN1CCCC[C@H]1C(=O)Nc1c(C)cccc1C -9.04%, COc1ccccc1CNc1ccnc(-c2ccccc2C(F)(F)F)n1 -4.86%, CSc1ncccc1C(=O)NCCN1Cc2ccccc2OC(c2ccccc2F)C1 (stereo not given) 9.49%, COc1cc(NCc2ccc3nc(N)nc(N)c3c2C)cc(OC)c1OC 13.5%, COc1cccc(-c2ccc3ncnc(NCc4ccccc4OC)c3c2)c1 -9.54%, Cc1ccc(S(=O)(=O)N[C@@H](Cc2ccccc2)C(=O)CCl)cc1 -7.27%, O=C(O)CCNC(=O)c1ccc(N=Nc2ccc(O)c(C(=O)O)c2)cc1 -22.5%, COc1ccccc1-c1nc(NCc2cccnc2)c2ccccc2n1 0.873%, O=C1[C@H]2[C@H](C=CC[C@H]2C(=O)N2CCOCC2)CCN1Cc1ccc(Cl)c(Cl)c1 -5.62%, COc1ccc2c(c1)OC/C(=C/c1ccc(OC)c(OC)c1)C2=O -5.31%, O=C(O)CCC(=O)OC[C@@H](NC(=O)C(Cl)Cl)C(O)c1ccc([N+](=O)[O-])cc1 (stereo not given in full) -9.09%, COc1cccc2oc(-c3ccccc3)cc(=O)c12 1.44%, COCc1c(C(=O)N2CCN(C3CCCC3)CC2)cnn1-c1nccc(-c2cc(C)sc2C)n1 3.83%, O=CN1CCc2c([nH]c3ccccc23)C1c1cccc2cccnc12 (stereo not given) -5.23%, NC1CCN(c2cccc(Cl)n2)CC1 -21.3% and 1.96% and -19.9%, CC1C(=O)N(C)C(=O)c2nc[nH]c21 (stereo not given) -3.49%, CCSc1nnc(C(C)NS(=O)(=O)c2cccc(Cl)c2C)n1C (stereo not given) -7.43%, CCCCCCCCCCCCC/C=C/[C@@H](O)[C@H](CO)NCCCCCCCC -10.4%, CC1(C)C=Cc2c(cc3occ(-c4ccc5c(c4)OCO5)c(=O)c3c2O)O1 0.172%, O=c1cc(CO)occ1O -22.1% and -3.04% and 3.58%, CS(=O)(=O)Nc1cccc(-c2cncnc2Nc2ccccc2)c1 4.36%, COc1cccc(CN2CCC(n3cc(C(=O)NC4CCCC4)nn3)CC2)c1O -16.6%, COc1ccccc1CNc1nc(-c2ccc3c(c2)OCO3)nc2ccccc12 10.1%, CCNc1ncc2ncc(=O)n(Cc3cccs3)c2n1 6.24%, CC1(C)CC(C(=O)N2CCOc3ccc(CN4CCC(Oc5cccnc5)CC4)cc3C2)CCO1 (stereo not given) -8.93%, COc1cc(=O)n2c(c1C(=O)N(C)Cc1nonc1C)CCN(Cc1cccc3ccccc13)CC2 1.41%, C[N+]1(CC(=O)c2ccc(I)cc2)CCOCC1 -23.6%, CCCC1C(=O)N2C(N(C)C)=Nc3ccc(C)cc3N2C1=O (stereo not given) -4.7%, Clc1ccc(C(Cn2ccnc2)OCc2ccsc2Cl)c(Cl)c1 (stereo not given) 1.07%, CN(C)C(=O)c1ccc(-c2cncnc2NCc2cccs2)cc1 -19.8%, N[C@H]1CN(c2c(F)cc3c(=O)c(C(=O)O)cn(C4C[C@@H]4F)c3c2Cl)CC12CC2 (stereo not given in full) -10.1%, CCNc1ncc2nc(-c3ccc(Cl)cc3)c(=O)n(-c3ccc(OC)cc3)c2n1 -19.6%, O=C(c1csnn1)N1CCC2(CC1)CN(C(c1ccccc1)c1ccccc1)C2 -16.5%, CC1(C)CCC(=O)N2CC[C@H]3C[C@H](OC(=O)Nc4ccc(Br)cc4)C[C@@H]1[C@H]32 -6.77%, c1cnc(N2CCN(Cc3ccc4c(c3)OCO4)CC2)nc1 -7.54% and 2.56% and -2.4%, c1nc(NC2CC2)c2cc(-c3ccoc3)ccc2n1 -16%, c1ccc(CNc2ncnc3ccc(-c4cccnc4)cc23)cc1 -9.08%, C/C(=C\CNc1ncnc2nc[nH]c12)CO 5.21%, C[C@](N)(Cc1ccc(O)c(O)c1)C(=O)O -14.6% and 5.13% and -20.3%, CCc1ncnc2cc(OC)c(OC)cc12 -1.63%, Cc1cc2c(c(-c3cnccn3)c1)OC(CNC(=O)C1CCCN(C)C1)C2 (stereo not given) -7.13%, COc1ccc(CNc2ccnc(-c3ccccc3OC)n2)c(OC)c1 5.27%, Clc1ccc2nccnc2c1 -20.9%, COc1ccccc1C(=O)N1CCOc2ccc(C(C)(O)CCn3cccn3)cc2C1 (stereo not given) -1.67%, CC(=O)N1CCN(c2ccc(OCC3CO[C@@](Cn4ccnc4)(c4ccc(Cl)cc4Cl)O3)cc2)CC1 (stereo not given in full) -12.7%, Cc1c(C(=O)NN2CCCCC2)nn(-c2ccc(Cl)cc2Cl)c1-c1ccc(Cl)cc1 -22.9%, Cc1cccc(CNc2ncnc3ccc(-c4ccoc4)cc23)c1 -10.8%, Cn1cccc1C(=O)N1CCC2(CCCN(c3ccccc3)C2)CC1 -11.3%, O=C(Nc1ccccc1)N1CC2(CCN(C(=O)c3cccc(F)c3)CC2)C1 1.64%, O=c1c(-c2ccc(F)cc2)nc2cnc(Oc3ccccc3)nc2n1C1CC1 -7.07%, OC1(c2cccnc2)CCN(Cc2ccc3c(c2)CN(Cc2cc(F)ccc2F)CCO3)CC1 -6.02%, NS(=O)(=O)c1ccc(Cl)c(S(N)(=O)=O)c1 10.8%, CCC1COCCS(=O)(=O)N1Cc1ccccc1C (stereo not given) -28.9%, CN(C)Cc1ccccc1-c1cncnc1NCc1cccs1 -18.3%, COc1cc(C)c2ccccc2n1 -24.7%, CC(C)(C)c1ccc(S(=O)(=O)/C=C\C#N)cc1 -23%, COC(=O)c1cc(=O)c(O)c2c(O)c(O)ccc2c1 -17.6%, COC(=O)C1CCCCN1Cc1nc(N2CCCN(C(C)=O)CC2)c2ccccc2n1 (stereo not given) -9.14%, COc1cccc(-c2nc(Nc3ccncc3)c3ccccc3n2)c1 16.2%, COC(=O)/C=C/c1ccc(C(=O)NCC(=O)N[C@@H](CCC(=O)OC)C(=O)N[C@@H](CC(C)C)C(N)=O)cc1 -0.969%, C=CC(C1=CC(=O)C(OC)=CC1=O)c1ccccc1 (stereo not given) 2.24%, COc1cc2c(cc1OC)CC(=O)N(CCCN(C)C[C@H]1Cc3cc(OC)c(OC)cc31)CC2 5.82%, O=C(c1cnccn1)N1CCC2(CCN(Cc3ccccc3)CC2)CC1 0.116%, NCC1OC(n2cnc3c(=O)[nH]c(N)nc32)C(O)C1O (stereo not given) 7.25%, CC[N+](CC)(CC)CCOc1ccc(/C=C\c2ccccc2)cc1 -11.5%, O=c1c(-c2ccccc2)nc2cnc(N3CCOCC3)nc2n1C[C@H]1CCCO1 -3.07%, CCCCCCCCCCCCOCCOCCOCCOCCOCCOCCOCCOCCOCCO -54.4%, COCCCNc1ncnc2sc(C(=O)N3CCOCC3)c(C)c12 -19.6%
